Consider 45 molecules from PubChem BioAssay AID504444 (National Center for Advancing Translational Sciences (NCATS), 2011).

In all, about 360,000 compounds went through this assay and about 7,500 (2.1%) were called active. Roughly 20% stayed inconclusive and do not appear here. The call rests on the fitted dose curve; in most records, active means well fitted inhibition curve with a large enough effect; inconclusive means small, poorly fitted or top-dose-only effect, or effect the other way; inactive means flat fitted curve, though single readings scatter. Only a part is listed here, and it is no random draw.
On the % scale 0 is the no-effect control and ±100 the full control effect; potency means the concentration at half of the fitted maximal effect.

The assay in a line: Nrf2 qHTS screen for inhibitors. Further: nearly all actives have a fitted effect of over 60% in size. The note with it: A549 ARE-Fluc reporter, luciferase luminescence, 18-24 h; series mostly up to 46 µM; activity change, negative = inhibition: at the top concentration. An outline of the steps: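 Concentration-response testing used A549 ARE_Fluc cells at 5000 cells/well. Following an 18-24 h compound incubation, viability was read by fluorescence (Ex 405/Em 525) and luciferase output by luminescence.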
For `C=CC[C@@H](CC(=O)N[C@@H](CO)Cc1ccccc1)C(=O)N[C@H](C)COC(=O)[C@@H](CC=C)Cc1ccc(F)cc1`, the “activity change, negative = inhibition” value is inactive: 6.96%. For `CCc1ccc(NC(=O)c2c(C(=O)Nc3ccccc3)sc3nc(C)cc(=O)n23)cc1`, the “activity change, negative = inhibition” value is inactive: 4%. In the case of `CC(=O)N1c2ccc(S(=O)(=O)N3CCC(C(=O)Nc4ccccn4)CC3)cc2CC1C` (stereo not given), the Potency is active: 18.4 µM.

As for `COc1cc(NS(=O)(=O)c2ccc(C)cc2)c2ncccc2c1`, the “activity change, negative = inhibition” value is inactive: -46.7%.

With `CCOC(=O)c1nc(Nc2ccc(C(=O)OC)cc2)c2ccccc2n1`, the “activity change, negative = inhibition” value was inactive: -0.806%.

Turning to `COCCNC(=O)c1cccc(Nc2nc(-c3ccccc3)c3cc(Cl)ccc3n2)c1`, the Potency was active: 14.6 µM. Turning to `COc1cc(NC(=O)NCC2CCN(Cc3ccc(C)cc3)CC2)cc(OC)c1OC`, the “activity change, negative = inhibition” value is inactive: 1.77%. On to `C=CC[C@@H](CC(=O)N[C@@H](CO)Cc1ccccc1)C(=O)N[C@H](COC(=O)[C@@H](CC=C)Cc1ccc(F)cc1)Cc1c[nH]c2ccccc12`, for which the “activity change, negative = inhibition” value is inactive: 8.98%. On the same count and under the same terms, the same measure for `COc1cccc(NC(=O)c2sc3nc4n(c(=O)c3c2C)CCC4)c1`: inactive: 15.2%; for `Cc1cccc(NC(=O)Nc2ccc(Br)cc2)n1`: inactive: 6.74%.

In the case of `CCc1cccc(C)c1NC(=O)C1CCN(c2nn3c(=O)cc(C)nc3s2)CC1`, the “activity change, negative = inhibition” value is inactive: 2.73%. `Nc1nc(Cl)cc(N2CCC(c3cc(-c4ccc(Cl)cc4Cl)n[nH]3)CC2)n1`: the Potency was active: 10.3 µM. As for `COc1cc2c(cc1OC)C(C)N(C(=O)C(NC(=O)c1ccccc1)C(C)C)CC2` (stereo not given), the “activity change, negative = inhibition” value was inactive: -25.2%. As for `O=C(CSc1ncn[nH]1)N1N=C2/C(=C\c3ccco3)CCCC2C1c1ccco1` (stereo not given), the “activity change, negative = inhibition” value is inactive: -18.4%. For the molecule `CC(C)(C)OC(=O)C[C@H]1C/C=C\C[C@@H](CC(=O)N(CCO)Cc2ccccc2)C(=O)NC[C@H](c2ccccc2)OC1=O`, the “activity change, negative = inhibition” value is inactive: 11.7%. With `Cc1nn(CCC(=O)NCc2ccc(N(C)C)cc2)c(=O)c2nn(-c3ccccc3)c(C)c12`, the “activity change, negative = inhibition” value was inactive: 11.5%. Take `C[C@H]1NC(=O)[C@@]2(C)[C@H](c3ccccc3)[C@H]3COc4ccccc4[C@@H]3N2C1=O`: the “activity change, negative = inhibition” value is inactive: 4.98%.

On to `COc1cc(NC(=O)c2cc3ccccc3cc2OC)ccc1NC(=O)c1cccs1`, for which the Potency was active: 5.17 µM.

With `Cc1cccc(NS(=O)(=O)c2nnc(NC(=O)C3CCCCC3)s2)c1`, the “activity change, negative = inhibition” value is inactive: -22.1%.

On to `COc1cc(-c2nnn(CC(=O)NCc3ccccc3)n2)cc(OC)c1OC`, for which the “activity change, negative = inhibition” value was inactive: -5.67%. `CCN(C(=O)C1CCN(c2nc(-c3ccc(OC)cc3)no2)CC1)c1ccc(OC)cc1`: the Potency is active: 13 µM. In the case of `N=C(N)SCc1nc2ccccc2c(=O)n1-c1ccccc1`, the “activity change, negative = inhibition” value was inactive: 12.8%. Take `N#CC(c1ccc(F)cc1)c1ccc(C(=O)c2ccc(F)cc2)cc1` (stereo not given): the Potency is active: 14.6 µM. On to `Cc1c(N2C(=O)/C(=C/c3cccc4ccccc34)SC2=S)c(=O)n(-c2ccccc2)n1C`, for which the “activity change, negative = inhibition” value was inactive: -0.176%.

Take `CC1=C(C(=O)OCc2ccccc2)C(c2cccnc2)c2c(n(C)c(=O)n(C)c2=O)N1` (stereo not given): the “activity change, negative = inhibition” value is inactive: -11.1%. On the same count and under the same terms, next, `C=CC[C@@H](CC(=O)N[C@@H](CO)Cc1ccccc1)C(=O)N[C@@H](COC(=O)[C@@H](CC=C)Cc1ccc(F)cc1)Cc1c[nH]c2ccccc12`: inactive: 0.809%. Consider `COc1ccccc1CNC(=O)C(=O)NCC(c1cccnc1)N1CCN(c2ccc(F)cc2)CC1` (stereo not given), for which the Potency was active: 20.6 µM. Turning to `Cc1ccc(NC(=O)CNc2cccc(Br)c2)cc1S(=O)(=O)N1CCOCC1`, the Potency was active: 20.6 µM.

As for `CCC1CSC(Nc2ccc(C(=O)/C=C/c3cccc(C)c3)cc2)=N1` (stereo not given), the Potency is active: 23.1 µM. As for `C=C1CCN(C(C)C(=O)OCc2ccc(C)cc2)S(=O)(=O)c2ccccc21` (stereo not given), the “activity change, negative = inhibition” value is inactive: 10.9%. Consider `O=C(C[C@H]1C/C=C\CC[C@@H](Cc2ccc(F)cc2)C(=O)OC[C@H]2CCCN2C1=O)N[C@@H](CO)Cc1ccccc1`, for which the “activity change, negative = inhibition” value is inactive: -18%. `O=C(Cn1c(COc2ccccc2)nc2ccccc21)Nc1cc(Cl)ccc1Cl`: the Potency was active: 18.4 µM. Regarding `Cc1ccc(C(=O)NCCSc2ccc(Cl)cc2)cc1S(=O)(=O)Nc1ccccc1`, the Potency was active: 14.6 µM. Consider `Cc1cc(C)c2nc(NNC(=O)c3ccc(S(=O)(=O)N4CCCC(C)C4)cc3)sc2c1` (stereo not given), for which the Potency was active: 4.11 µM. As to `CN(C)c1ccc(CNS(=O)(=O)c2csc(C(N)=O)c2)cc1`, the “activity change, negative = inhibition” value was inactive: -15.2%. Same read-out and setting: the same measure for `Nc1ccc(N2CCN(C(=O)c3ccco3)CC2)cc1`: inactive: 0.651%; for `CN(c1ccc(Cl)cc1)S(=O)(=O)c1nnc(NC(=O)c2ccco2)s1`: inactive: 1.69%; for `CCOc1ccccc1NC(=O)CCS(=O)(=O)c1ccc(OC)cc1`: inactive: -3.78%. On the same count and under the same terms, the same measure for `CCCn1c2ccc(C)cc2c2nnc(SCCN3CCCCC3)nc21`: inactive: 11.2%. With `CC(C)N(C(=O)CSc1nc(Cc2ccccc2)nc2ccccc12)C(C)C`, the Potency was active: 18.4 µM.

In the case of `Cc1cc2c(cc1S(=O)(=O)CCC(=O)N(C)Cc1ccccc1)OCC(=O)N2`, the “activity change, negative = inhibition” value was inactive: -5.77%.

Regarding `COc1ccc(C2=NS(=O)(=O)N(C)C(C(=O)NC(C)c3ccccc3)=C2)cc1OC` (stereo not given), the “activity change, negative = inhibition” value is inactive: 12.5%. On the same count and under the same terms, next, `O=C1CCCC2=C1C1(CCCCC1)N=C(Nc1nc3ccccc3o1)N2`: inactive: -2.73%; `COc1cccc(CNC(=O)CCCn2nc(C)c3c(C)n(-c4ccc(C)cc4)nc3c2=O)c1OC`: inactive: 0.742%.

Take `Cc1ccc(-n2c(-c3ccco3)nc3c(cnn3-c3ccccc3C)c2=O)cc1`: the “activity change, negative = inhibition” value was inactive: -24.8%.
